# Changes are numbered by the printed parent chain; changes in the protein carry UniProt numbers. This is one part of the list.
# T1: RBFOX1 RRM (Homo sapiens, UniProt Q9NWB1 109-208)
# T1 sequence: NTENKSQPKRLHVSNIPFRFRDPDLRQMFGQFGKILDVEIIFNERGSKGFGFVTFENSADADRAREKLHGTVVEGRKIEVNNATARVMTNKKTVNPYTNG
# B1: CUGGCAA (DNA:RNA)
# RNA: GGGAGACCGGAAUUCAGAUUGUCCCUGGCAAUUAAAUCCCGUCGUAGCCACCA
# DNA 1: CAATCTGAATTCCGGTCTCCC
# DNA 2: TGGTGGCTACGACGGGATT
# B2: ACGAGGG (DNA:RNA)
# RNA: B1 RNA with C25A, U26C, G28A, C29G, A30G, A31G
# DNA 1: CAATCTGAATTCCGGTCTCCC
# DNA 2: TGGTGGCTACGACGGGATT
# B3: UCCGCGC (DNA:RNA)
# RNA: B1 RNA with C25U, U26C, G27C, A30G, A31C
# DNA 1: CAATCTGAATTCCGGTCTCCC
# DNA 2: TGGTGGCTACGACGGGATT
# B4: CGAGUUA (DNA:RNA)
# RNA: B1 RNA with U26G, G27A, C29U, A30U
# DNA 1: CAATCTGAATTCCGGTCTCCC
# DNA 2: TGGTGGCTACGACGGGATT
# B5: GACCGCC (DNA:RNA)
# RNA: GGGAGACCGGAAUUCAGAUUGUCCGACCGCCUUAAAUCCCGUCGUAGCCACCA
# DNA 1: CAATCTGAATTCCGGTCTCCC
# DNA 2: TGGTGGCTACGACGGGATT
# B6: UUAUGGG (DNA:RNA)
# RNA: B1 RNA with C25U, G27A, G28U, C29G, A30G, A31G
# DNA 1: CAATCTGAATTCCGGTCTCCC
# DNA 2: TGGTGGCTACGACGGGATT
# B7: UCUAUUC (DNA:RNA)
# RNA: B5 RNA with G25U, A26C, C27U, C28A, G29U, C30U
# DNA 1: CAATCTGAATTCCGGTCTCCC
# DNA 2: TGGTGGCTACGACGGGATT
# B8: CACGCUA (DNA:RNA)
# RNA: B1 RNA with U26A, G27C, A30U
# DNA 1: CAATCTGAATTCCGGTCTCCC
# DNA 2: TGGTGGCTACGACGGGATT
# B9: CCUACUU (DNA:RNA)
# RNA: B1 RNA with U26C, G27U, G28A, A30U, A31U
# DNA 1: CAATCTGAATTCCGGTCTCCC
# DNA 2: TGGTGGCTACGACGGGATT
# B10: UACUAAA (DNA:RNA)
# RNA: B1 RNA with C25U, U26A, G27C, G28U, C29A
# DNA 1: CAATCTGAATTCCGGTCTCCC
# DNA 2: TGGTGGCTACGACGGGATT
# B11: UCCGAGG (DNA:RNA)
# RNA: B1 RNA with C25U, U26C, G27C, C29A, A30G, A31G
# DNA 1: CAATCTGAATTCCGGTCTCCC
# DNA 2: TGGTGGCTACGACGGGATT
# B12: UCUCCAG (DNA:RNA)
# RNA: B1 RNA with C25U, U26C, G27U, G28C, A31G
# DNA 1: CAATCTGAATTCCGGTCTCCC
# DNA 2: TGGTGGCTACGACGGGATT
# B13: GGCGUUA (DNA:RNA)
# RNA: B1 RNA with C25G, U26G, G27C, C29U, A30U
# DNA 1: CAATCTGAATTCCGGTCTCCC
# DNA 2: TGGTGGCTACGACGGGATT
# B14: GCCUUUU (DNA:RNA)
# RNA: B5 RNA with A26C, C28U, G29U, C30U, C31U
# DNA 1: CAATCTGAATTCCGGTCTCCC
# DNA 2: TGGTGGCTACGACGGGATT
# B15: GACAUGG (DNA:RNA)
# RNA: B5 RNA with C28A, G29U, C30G, C31G
# DNA 1: CAATCTGAATTCCGGTCTCCC
# DNA 2: TGGTGGCTACGACGGGATT
# B16: UAACCGA (DNA:RNA)
# RNA: B1 RNA with C25U, U26A, G27A, G28C, A30G
# DNA 1: CAATCTGAATTCCGGTCTCCC
# DNA 2: TGGTGGCTACGACGGGATT
# B17: AGGGUCA (DNA:RNA)
# RNA: B1 RNA with C25A, U26G, C29U, A30C
# DNA 1: CAATCTGAATTCCGGTCTCCC
# DNA 2: TGGTGGCTACGACGGGATT
# B18: GUUUCAG (DNA:RNA)
# RNA: B1 RNA with C25G, G27U, G28U, A31G
# DNA 1: CAATCTGAATTCCGGTCTCCC
# DNA 2: TGGTGGCTACGACGGGATT
# B19: UUACCAG (DNA:RNA)
# RNA: B1 RNA with C25U, G27A, G28C, A31G
# DNA 1: CAATCTGAATTCCGGTCTCCC
# DNA 2: TGGTGGCTACGACGGGATT
# B20: GAUUCUC (DNA:RNA)
# RNA: B5 RNA with C27U, C28U, G29C, C30U
# DNA 1: CAATCTGAATTCCGGTCTCCC
# DNA 2: TGGTGGCTACGACGGGATT
# B21: GUUAUUG (DNA:RNA)
# RNA: B1 RNA with C25G, G27U, G28A, C29U, A30U, A31G
# DNA 1: CAATCTGAATTCCGGTCTCCC
# DNA 2: TGGTGGCTACGACGGGATT
# B22: GCAGGGA (DNA:RNA)
# RNA: B1 RNA with C25G, U26C, G27A, C29G, A30G
# DNA 1: CAATCTGAATTCCGGTCTCCC
# DNA 2: TGGTGGCTACGACGGGATT
# B23: CCCUGAU (DNA:RNA)
# RNA: B1 RNA with U26C, G27C, G28U, C29G, A31U
# DNA 1: CAATCTGAATTCCGGTCTCCC
# DNA 2: TGGTGGCTACGACGGGATT
# B24: GCAGUUC (DNA:RNA)
# RNA: B5 RNA with A26C, C27A, C28G, G29U, C30U
# DNA 1: CAATCTGAATTCCGGTCTCCC
# DNA 2: TGGTGGCTACGACGGGATT
# B25: CUGCAUU (DNA:RNA)
# RNA: B1 RNA with G28C, C29A, A30U, A31U
# DNA 1: CAATCTGAATTCCGGTCTCCC
# DNA 2: TGGTGGCTACGACGGGATT
# B26: GCGCGAC (DNA:RNA)
# RNA: B5 RNA with A26C, C27G, C30A
# DNA 1: CAATCTGAATTCCGGTCTCCC
# DNA 2: TGGTGGCTACGACGGGATT
# B27: ACAUCGG (DNA:RNA)
# RNA: B1 RNA with C25A, U26C, G27A, G28U, A30G, A31G
# DNA 1: CAATCTGAATTCCGGTCTCCC
# DNA 2: TGGTGGCTACGACGGGATT
# B28: CCGCCUG (DNA:RNA)
# RNA: B1 RNA with U26C, G28C, A30U, A31G
# DNA 1: CAATCTGAATTCCGGTCTCCC
# DNA 2: TGGTGGCTACGACGGGATT
# B29: ACGGCUC (DNA:RNA)
# RNA: B1 RNA with C25A, U26C, A30U, A31C
# DNA 1: CAATCTGAATTCCGGTCTCCC
# DNA 2: TGGTGGCTACGACGGGATT
# B30: GUGUAGA (DNA:RNA)
# RNA: B1 RNA with C25G, G28U, C29A, A30G
# DNA 1: CAATCTGAATTCCGGTCTCCC
# DNA 2: TGGTGGCTACGACGGGATT
# B31: GCACCAA (DNA:RNA)
# RNA: B1 RNA with C25G, U26C, G27A, G28C
# DNA 1: CAATCTGAATTCCGGTCTCCC
# DNA 2: TGGTGGCTACGACGGGATT
# Target: T1, RBFOX1 RRM
# Experiment: EMSA; HiTS-Eq, 1 nM pool, 10 min; buffer printed only for the single-RNA assays: 10 mM Tris pH 7.5, 150 mM NaCl, 3.4 mM EDTA, 0.001% NP-40, 30 C
# Conditions: tags: His6 N-terminal (pET28a); label: 5' 32P
# How it was run: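 These values rest on relative association constants, computed from read-count changes of each RNA species versus the control reaction and normalised to the cognate motif. Reads came from free RNA recovered by 8% native PAGE after purified RbFox RRM (wild type or mutant) at increasing concentrations was equilibrated for 10 min in 50 µL with 1 nM of a 5′-radiolabelled pool with 7 randomized nucleotides and DNA-annealed flanks.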
row,Binder,binding signal
1,B1,0.013 KA relative to UGCAUGU
2,B2,0.00925 KA relative to UGCAUGU
3,B3,0.0109 KA relative to UGCAUGU
4,B4,0.00739 KA relative to UGCAUGU
5,B5,0.0115 KA relative to UGCAUGU
6,B6,0.00208 KA relative to UGCAUGU
7,B7,0.00485 KA relative to UGCAUGU
8,B8,0.00504 KA relative to UGCAUGU
9,B9,0.00306 KA relative to UGCAUGU
10,B10,0.00206 KA relative to UGCAUGU
11,B11,0.0114 KA relative to UGCAUGU
12,B12,0.00859 KA relative to UGCAUGU
13,B13,0.00893 KA relative to UGCAUGU
14,B14,0.0103 KA relative to UGCAUGU
15,B15,0.0117 KA relative to UGCAUGU
16,B16,0.00558 KA relative to UGCAUGU

row,Binder,binding signal
1,B17,0.0139 KA relative to UGCAUGU
2,B18,0.0198 KA relative to UGCAUGU
3,B19,0.00776 KA relative to UGCAUGU
4,B20,0.017 KA relative to UGCAUGU
5,B21,0.0161 KA relative to UGCAUGU
6,B22,0.0126 KA relative to UGCAUGU
7,B23,0.0113 KA relative to UGCAUGU
8,B24,0.0108 KA relative to UGCAUGU
9,B25,0.0136 KA relative to UGCAUGU
10,B26,0.00894 KA relative to UGCAUGU
11,B27,0.00389 KA relative to UGCAUGU
12,B28,0.0178 KA relative to UGCAUGU
13,B29,0.0105 KA relative to UGCAUGU
14,B30,0.0144 KA relative to UGCAUGU
15,B31,0.00836 KA relative to UGCAUGU

# Source: article PMC9911399, “Two distinct binding modes provide the RNA-binding protein RbFox with extraordinary sequence specificity”
